The results in this text go back to PubChem BioAssay AID488969 (Vanderbilt High Throughput Screening Facility, 2010).

Structures are written as SMILES. In all, about 110,000 compounds were measured (“z-score”: median about -0.1, highest 2% from about 2 on). This is one part of the list. The source made the active and inactive calls.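 Rule for the calls: active = z-score in the third read window above 3 or below -3; inactive = the rest.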

For this experiment, the target named is Metabotropic glutamate receptor 8 (Rattus norvegicus) (UniProt P70579). The experiment in a line: rat mGluR8 modulators via GIRK flux, primary screen, cell-based, thallium flux, HTS (AID 488969). Conditions: HEK293 rat mGluR8, GIRK (G protein-gated inwardly rectifying potassium channel) thallium flux, FluoZin2; at 10 µM; stronger effect = higher value; submaximal glutamate (EC20) added with thallium.
Chain of UniProt P70579 (P70579 whole entry, looked up): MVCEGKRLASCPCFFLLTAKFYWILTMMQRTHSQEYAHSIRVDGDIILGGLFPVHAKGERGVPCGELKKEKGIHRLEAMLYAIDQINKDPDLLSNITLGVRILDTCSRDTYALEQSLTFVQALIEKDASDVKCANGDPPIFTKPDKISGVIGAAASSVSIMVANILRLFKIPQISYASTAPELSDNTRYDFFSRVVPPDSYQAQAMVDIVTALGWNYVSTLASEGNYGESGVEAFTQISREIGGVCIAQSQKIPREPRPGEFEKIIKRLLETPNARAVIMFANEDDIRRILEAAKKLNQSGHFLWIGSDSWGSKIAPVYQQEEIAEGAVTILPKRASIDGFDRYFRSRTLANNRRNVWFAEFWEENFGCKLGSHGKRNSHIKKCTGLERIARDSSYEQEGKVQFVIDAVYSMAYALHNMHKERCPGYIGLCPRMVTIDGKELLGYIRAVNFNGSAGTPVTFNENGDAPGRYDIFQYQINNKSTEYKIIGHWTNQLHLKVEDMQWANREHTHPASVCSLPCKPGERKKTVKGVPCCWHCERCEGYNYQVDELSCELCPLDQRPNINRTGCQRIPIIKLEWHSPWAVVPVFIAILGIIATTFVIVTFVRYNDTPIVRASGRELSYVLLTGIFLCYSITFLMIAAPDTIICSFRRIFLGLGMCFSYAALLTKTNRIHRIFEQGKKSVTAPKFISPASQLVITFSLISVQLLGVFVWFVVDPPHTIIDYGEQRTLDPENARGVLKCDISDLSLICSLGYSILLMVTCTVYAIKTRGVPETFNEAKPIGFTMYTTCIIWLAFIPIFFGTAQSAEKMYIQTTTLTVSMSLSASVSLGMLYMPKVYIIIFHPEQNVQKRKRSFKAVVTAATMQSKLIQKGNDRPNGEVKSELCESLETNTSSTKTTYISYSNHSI
As to `COc1ccc2oc(/C=C/N(C)C)c(C(=O)c3ccc(Cl)cc3)c2c1`, the z-score is -0.209. In turn, `O=C(CSc1c[nH]c2ccccc12)NCC1CCCO1` (stereo not drawn) returned a z-score of -0.0605. With `COC(=O)c1ccccc1NC(=O)NCc1ccccn1`, the z-score is 0.207. In the case of `CCOC(=O)c1oc2ccccc2c1NC(=O)COC` it was -0.0593; in that of `Cc1ccc(NC(=O)CNC(c2ccccc2)c2ccccc2)c(F)c1`, 0.49; in that of `COc1ccc2nc(NC(=O)c3cccc(S(=O)(=O)N4CCOCC4)c3)sc2c1`, 0.184. The value for `O=C(NCc1ccco1)c1ccc(NC(=O)C2COc3ccccc3O2)cc1` (stereo not drawn) was -0.216.

As to `COc1cccc(CN2CCN(Cc3cc(OC)c(OC)cc3[N+](=O)[O-])CC2)c1`, the z-score was -0.0472. The value for `O=C(NCCO)c1ccc2nc(-c3ccco3)c(-c3ccco3)nc2c1` was -0.361; that for `Cc1sc2ncnc(NCC(c3ccco3)N3CCCC3)c2c1C` (stereo not drawn) was -1.17; that for `COc1cccc(-c2nc(=S)c3c(n2CCCO)CCCC3)c1` was -0.0149. In the case of `O=C(Oc1cccc2cccnc12)c1ccc(Br)o1` it was 0.13; in that of `CCc1cc2c(SCC(=O)C(C#N)=C3N(C)c4ccccc4N3C)ncnc2s1`, -0.0221; in that of `CC(Sc1nc(N)cc(=O)[nH]1)C(=O)NC1CCCCC1` (stereo not drawn), 0.226. The compound `COc1ccccc1N1CCN(C(=O)Oc2ccccc2)CC1` registered a z-score of -0.574.

Compound `CC(C)OCC(O)CSc1ccccn1` (stereo not drawn) came in with a z-score of -0.878.

Compound `CCn1c(-c2ccccc2Cl)nn(CC(=O)Nc2ccc(OC)cc2)c1=S` returned a z-score of -0.291.

The compound `CCN(CC)C(=O)C1CCN(S(=O)(=O)c2cccc3nonc23)CC1` returned a z-score of -0.0914. For `CC(N1CCOC1=O)S(=O)(=O)c1ccccc1` (stereo not drawn), the z-score stood at 0.123. `CCOc1ccc(Cn2c(C)nc([N+](=O)[O-])c2SCC(O)CCl)cc1[N+](=O)[O-]` (stereo not drawn) had a z-score of -0.132. The value for `Cc1cccc(C)c1NC(=O)COc1ccc2c(C)c(Cc3ccccc3)c(=O)oc2c1` was -0.696; that for `Cc1ccc(CNc2nc3ccccc3n3cnnc23)cc1` was 0.49. On to `CCOC(=O)N1CCC(n2c(SCC(=O)Nc3ccccc3OC)nc3ccccc3c2=O)CC1`, for which the z-score amounted to 1.34. As to `CCCCNC(=S)N(C)/N=C/c1ccccc1C(=O)O`, the z-score was -0.276. Compound `CN(C1CCCCC1)S(=O)(=O)c1ccc2c(c1)c(=O)c(C(=O)NCCCN1CCCC1)cn2C` returned a z-score of 0.269. With `CS(=O)(=O)c1ccc(C(=O)NCC2(N3CCCCC3)CCCCC2)cc1`, the z-score came to 0.176.

The compound `C/C(=N\Nc1ccc(C(F)(F)F)cn1)c1ccc(S(=O)(=O)NCc2ccco2)cc1` came in with a z-score of 0.277. With `CN(C)S(=O)(=O)c1ccc(C(=O)NCCOc2ccccc2)cc1`, the z-score was -0.0108. The value for `CC1(C)Cc2c(c(N3CCOCC3)nc3sc(-c4ccc(C(=O)O)o4)c(N)c23)CO1` was -0.251; that for `CCc1cc2c(=O)c(-c3nc4ccccc4[nH]3)coc2c(CN2CCC(C)CC2)c1O` was 0.303; that for `COC(=O)C1=C(C(=O)c2ccccc2)C(c2cccs2)n2nnnc2N1` (stereo not drawn) was -0.165.

Compound `O=S(=O)(/N=C(/Nc1cc(N2CCOCC2)ncn1)c1ccccc1)c1ccccc1` returned a z-score of 0.0637. `CC(=O)c1ccc(NC(=O)CSc2nnc(Cc3cccn3C)n2-c2ccc(F)cc2)cc1` returned a z-score of -0.575. As for `Cc1ccc(NC(=O)COC(=O)c2cccc3c(=O)c(C)c(-c4ccccc4)oc23)cc1`, the z-score is -0.395.

The compound `Cc1c(=O)n(OCc2c(F)cccc2F)c2ccccc2[n+]1[O-]` showed a z-score of 0.393. The value for `O=S(=O)(Nc1ccc2c(c1)OCCO2)c1ccc(Br)s1` was -0.108; that for `Cn1nnnc1SCC(=O)NC(=O)Cc1ccccc1` was -0.477. Regarding `CC(NS(=O)(=O)c1ccc(F)cc1)C(c1cccs1)N1CCN(C)CC1` (stereo not drawn), the z-score was found to be 0.0443. As for `Cc1ccc(NC(=O)CCC(=O)c2ccc(F)cc2)cc1Cl`, the z-score was -0.444. Turning to `CCOC(=O)Cn1c(=O)n(Cc2ccco2)c(=O)c2ccc(C(=O)NC3CCCC3)cc21`, the z-score is -0.443. The value for `N/C(=N\OS(=O)(=O)c1ccc2ccccc2c1)c1ccncc1` was -0.234. The value for `CC(C)CCOC(=O)C1[C@H]2C(=O)N(Cc3cccs3)C[C@]23C=C[C@H]1O3` (stereo partly drawn) was 0.173; that for `C(=N\Nc1nn[nH]n1)/c1ccccc1` was 0.055. As to `Cc1nn2c(NCCCN(C)C)c3c(nc2c1-c1ccccc1)CCC3`, the z-score was active: 3.36. Take `CCCOc1ccc(C(=O)CCC(=O)OCC(=O)N2CC(=O)Nc3ccccc32)cc1`: the z-score was -0.534. Regarding `O=C(Nc1cccc(Cl)c1)Nc1nnc(-c2ccccc2)o1`, the z-score worked out at 1.11. In the case of `Cc1nnc2ccc(N3CCN(C(=O)c4ccccc4)CC3)nn12` it was 0.0411.

For `O=C(c1nc2ncccn2n1)N1CCc2ccccc2C1`, the z-score was -0.128. The value for `CN1CCN(S(=O)(=O)c2cccc(C(=O)N(c3ccccn3)C3CCCCC3)c2)CC1` was 0.694; that for `O=C(OC(C(=O)NC1CCCC1)c1ccccn1)c1cccs1` (stereo not drawn) was 0.998; that for `CCOC(=O)c1cnc2ccc(OCC)cc2c1NCc1ccccc1` was 0.483. `Cc1ccc(C)c(Cn2cnc3c(cnn3C(C)(C)C)c2=O)c1` had a z-score of -1.53. As for `CCN=c1scc(-c2ccco2)n1/N=C/c1ccc(O)cc1`, the z-score is active: 6.24. Compound `CC1(c2ccc3c(c2)OCO3)NC(=O)N(CC(=O)NCCC2=CCCCC2)C1=O` (stereo not drawn) came in with a z-score of 1.97. In the case of `CCCCN(CC)CCCNC(=O)CS(=O)(=O)Cc1nc(-c2cccc(OC)c2)oc1C` it was active: 3.63; in that of `CCOc1cc(N2CCOCC2)c(OCC)cc1NC(=O)CN1CCc2ccccc2C1`, -0.463. For `CCOC(=O)c1sc(NC(=O)/C=C/c2cnn(C)c2C)c(C(=O)OCC)c1C`, the z-score is -0.293. The compound `COc1ccc(Cl)cc1N1C(=O)C2CCCN2C1c1ccccc1F` (stereo not drawn) displayed a z-score of -0.409. In turn, `COc1cc(OC)c(NC(=O)c2cccc(F)c2)cc1Cl` displayed a z-score of -0.155.

Take `O=C(COC(=O)c1cccc(Cl)c1Cl)NCCN1C(=O)CSC1=O`: the z-score is -0.642. In the case of `Cc1cc(C)n(CC(O)COc2ccccc2C(=O)Nc2ccccc2)n1` (stereo not drawn) it was -0.873; in that of `Cc1cc(NC(=O)C2C3C(=O)N(CC4CCCO4)C(C(=O)NCc4ccccc4)C34C=CC2(C)O4)no1` (stereo not drawn), 0.0734; in that of `Cc1nnc(C)n1/N=C/c1ccccn1`, -0.443.

Consider `CCOc1ccc(NC(=O)C(c2ccccn2)N(C(=O)CCl)c2ccc(OCC)cc2)cc1` (stereo not drawn), for which the z-score is -0.0387. Turning to `O=c1cc(-c2ccccc2)n(S(=O)(=O)c2ccc3ccccc3c2)o1`, the z-score was -0.169. Regarding `CCOC(=O)c1ccccc1NC(=O)Cn1cnc2c(nnn2-c2ccc(C)cc2)c1=O`, the z-score was -0.607. The compound `Cc1ccccc1NC(NC(=O)c1cccnc1)C(Cl)(Cl)Cl` (stereo not drawn) returned a z-score of -0.513.

Take `O=C(CSc1nnc(CCc2nc3ccccc3[nH]2)n1-c1ccccc1)NCc1ccco1`: the z-score was -1.56. With `COc1ccc(C(=O)Nc2c(N)nc(SCC(=O)N3CCC(C)CC3)[nH]c2=O)cc1OC`, the z-score was -0.0942. The value for `O=C(NCC(c1cccnc1)N1CCOCC1)c1ccc2c(c1)OCO2` (stereo not drawn) was -0.152; that for `O=S(=O)(Nc1ncnc2sc3c(c12)CCC3)c1ccc(Cl)s1` was 0.439. Compound `CC(N=c1ccccn1C(=O)Nc1cccc(C(F)(F)F)c1)c1ccco1` (stereo not drawn) showed a z-score of 1.15. Compound `c1cncc(-c2nnc3sc(-c4ccco4)nn23)c1` came in with a z-score of 0.394. The compound `COc1ccc(N2C(=O)C3CC=C(Cl)CC3C2=O)cc1` (stereo not drawn) registered a z-score of -1.14. With `O=[N+]([O-])c1cc2c(cc1C=Nc1ccccc1)OCO2`, the z-score was -0.0132. Consider `CCc1ccc(-c2nc(NC(=O)c3ccc(OCC(=O)Nc4ccc(F)cc4)c(OC)c3)sc2C)cc1`, for which the z-score turned out to be 0.304. The compound `CSc1ccc(S(=O)(=O)N2CCCC2)cc1` gave a z-score of -0.542. As for `CC(C)(C)C1CCc2[nH]c3ccccc3c(=O)c2C1` (stereo not drawn), the z-score is -0.984. The value for `CCOc1ccc(NC(=S)NC(=O)/C=C/c2ccc(OC)cc2)c([N+](=O)[O-])c1` was -0.516. The compound `COc1ccccc1/C=N/NC(=O)CC(=O)Nc1ccc(Cl)c(Cl)c1` had a z-score of 0.199.

As to `Cc1ccc2c(CC(=O)OC3CCOC3=O)coc2c1` (stereo not drawn), the z-score is -0.361. For the compound `COc1ccc(S(=O)(=O)N2CCOCC2)cc1NC(=O)Cc1c(Cl)cccc1Cl`, the z-score is -0.238. `O=C(NCCCCc1ccccc1)C12CN(Cc3ccccc3)CC1C(c1cccc([N+](=O)[O-])c1)=NO2` (stereo not drawn) came in with a z-score of -0.04. In the case of `CCOC(=O)CSc1nc(C)cc(=O)[nH]1` it was -0.356; in that of `Cc1c(C(=O)c2ccc(Cl)c(Cl)c2)cnc2cc3c(cc12)OCO3`, 0.71; in that of `C/C(Cn1cnc([N+](=O)[O-])n1)=N\NC(=O)c1ccccc1`, 0.154. For `Cc1cccc2nc(CSCc3ccco3)cn12`, the z-score was -0.381. On to `Cc1ccc(-c2nc(=S)c3c(n2CCN2CCOCC2)CC(C)(C)OC3)cc1`, for which the z-score was determined as 0.463. The compound `CCN1CCN(c2nc(-c3cccs3)nc3ccccc23)CC1` came in with a z-score of -1.11. In the case of `Cc1ccc(SCc2ccc(C(=O)Nc3ccccc3Br)cc2)cc1` it was -0.123. In turn, `Cn1cc(S(=O)(=O)CC(=O)Nc2ccc3c(c2)OCO3)c2ccccc21` displayed a z-score of 0.535. Compound `CCCOc1ccc(CNC(=S)N/N=C/c2ccc([N+](=O)[O-])cc2)cc1` gave a z-score of 0.602. In the case of `Cc1csc(NC(=O)c2cc3c(s2)-c2ccccc2OC3)n1`, the z-score was -0.25. `COc1cc(CNCCc2c[nH]c3ccccc23)ccc1OCc1ccccc1F` gave a z-score of 0.911.

Turning to `COc1ccc(CCn2c(-c3ccco3)nc3nc4ccccc4nc32)cc1`, the z-score is -0.965. In turn, `Cc1cc(C)n2c(SCc3cccs3)nnc2n1` showed a z-score of -0.407. In turn, `CCOc1cc(-c2cc(-c3ccc(C)cc3)nc(N)c2C#N)ccc1O` gave a z-score of -0.244. The value for `O=C(CN1CCN(S(=O)(=O)c2ccc(Br)cc2)CC1)Nc1ccc2c(c1)OCO2` was 0.0794; that for `Cn1c(C(O)c2ccc(Cl)cc2)nc(Cl)c1Cl` (stereo not drawn) was -0.505. The value for `O=C(Nc1ccc(NC(=O)c2ccco2)cc1)c1ccc2c(c1)OCO2` was -0.42. For `Cc1ccc(NC(=O)CSc2nnc3n2CCCCC3)cc1`, the z-score was -0.177.

As to `C/C(N)=C(/C#N)C(=O)COC(=O)C1Cc2ccccc2CN1S(C)(=O)=O` (stereo not drawn), the z-score was -0.748. The value for `Cc1ccc(CN2CCN(CC3CC4C=CC3C4)CC2)cc1` (stereo not drawn) was 0.139; that for `O=C(COc1ncnc2scc(-c3ccc(F)cc3)c12)NCc1ccco1` was -0.386. `CCCOC(=O)c1cc(-c2ccc(/C=C3/C(=O)N(C)C(=O)C(C#N)=C3C)o2)ccc1Cl` had a z-score of 0.0482.

In turn, `CCOC(=O)C1CCCN(C(=O)c2cc3c(C)nc4ccccc4c3o2)C1` (stereo not drawn) displayed a z-score of -0.243. As to `CCc1ccc(OCC(=O)NC(C)(C)C)cc1`, the z-score was -0.166. The compound `CCOc1ccc(NC(=O)CCCc2cc(-c3ccc(OCC)cc3)on2)cc1` came in with a z-score of 0.253.
